What all share (experiment): protein-binding microarray (PBM)
Holding throughout (conditions): PBM: ~300 nM protein, 6 mM HEPES pH 7.8, 80 mM KCl, 0.5 mM EDTA, 0.5 mM EGTA, 6% glycerol, 35 ng/ul poly-dIdC, 1% milk, 1 h, room temperature; Ap Aiptasia and Nv Nematostella (sea anemones) / Co Capsaspora / Aq Amphimedon (sponge) / Dm Drosophila / Hu human; RHD is the Rel homology domain; high values mean tight binding; most listed sequences are background and not binding sites; double strand, one strand shown

In one assay the target is T1, GST-Ap-NF-kB RHD (UniProt A0A913YAJ5).
T1 sequence: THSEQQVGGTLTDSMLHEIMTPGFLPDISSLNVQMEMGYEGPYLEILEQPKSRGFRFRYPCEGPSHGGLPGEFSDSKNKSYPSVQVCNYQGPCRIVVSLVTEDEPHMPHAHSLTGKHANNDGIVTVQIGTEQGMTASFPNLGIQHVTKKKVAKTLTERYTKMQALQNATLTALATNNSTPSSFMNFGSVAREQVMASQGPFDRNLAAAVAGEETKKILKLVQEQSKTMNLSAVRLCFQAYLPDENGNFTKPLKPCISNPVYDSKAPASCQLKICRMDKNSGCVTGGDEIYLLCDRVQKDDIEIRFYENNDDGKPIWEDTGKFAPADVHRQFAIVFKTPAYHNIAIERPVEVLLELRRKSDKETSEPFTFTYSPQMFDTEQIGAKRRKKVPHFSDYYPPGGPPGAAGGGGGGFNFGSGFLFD

For assay [1], the target named is T2, GST-Nv-NF-kB (Cys allele) (UniProt E5G601).
T2 sequence: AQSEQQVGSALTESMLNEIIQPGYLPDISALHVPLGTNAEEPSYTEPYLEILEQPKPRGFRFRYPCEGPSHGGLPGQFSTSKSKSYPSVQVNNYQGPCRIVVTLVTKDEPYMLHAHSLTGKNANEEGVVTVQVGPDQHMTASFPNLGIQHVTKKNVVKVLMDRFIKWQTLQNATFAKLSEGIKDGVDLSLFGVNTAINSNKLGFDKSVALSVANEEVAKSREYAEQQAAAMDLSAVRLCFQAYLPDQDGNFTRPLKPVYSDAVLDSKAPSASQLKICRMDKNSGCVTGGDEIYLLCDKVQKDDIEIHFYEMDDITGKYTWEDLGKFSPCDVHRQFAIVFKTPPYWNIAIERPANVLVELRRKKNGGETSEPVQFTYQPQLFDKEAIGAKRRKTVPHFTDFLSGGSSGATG

The next assay deals with T3, GST-Co-NF-kB (UniProt F1ARL5).
T3 sequence: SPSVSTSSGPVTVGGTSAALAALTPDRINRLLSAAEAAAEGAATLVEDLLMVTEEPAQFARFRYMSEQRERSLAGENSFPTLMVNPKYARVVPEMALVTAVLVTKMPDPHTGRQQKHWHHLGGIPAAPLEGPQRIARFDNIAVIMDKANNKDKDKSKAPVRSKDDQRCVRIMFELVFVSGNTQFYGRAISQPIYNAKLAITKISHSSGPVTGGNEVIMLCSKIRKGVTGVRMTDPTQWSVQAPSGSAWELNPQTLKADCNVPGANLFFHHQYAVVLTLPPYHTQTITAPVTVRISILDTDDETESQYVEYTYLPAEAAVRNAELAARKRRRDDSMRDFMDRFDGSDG

In another assay the target is T4, GST-Dm-Relish (UniProt Q94527).
T4 sequence: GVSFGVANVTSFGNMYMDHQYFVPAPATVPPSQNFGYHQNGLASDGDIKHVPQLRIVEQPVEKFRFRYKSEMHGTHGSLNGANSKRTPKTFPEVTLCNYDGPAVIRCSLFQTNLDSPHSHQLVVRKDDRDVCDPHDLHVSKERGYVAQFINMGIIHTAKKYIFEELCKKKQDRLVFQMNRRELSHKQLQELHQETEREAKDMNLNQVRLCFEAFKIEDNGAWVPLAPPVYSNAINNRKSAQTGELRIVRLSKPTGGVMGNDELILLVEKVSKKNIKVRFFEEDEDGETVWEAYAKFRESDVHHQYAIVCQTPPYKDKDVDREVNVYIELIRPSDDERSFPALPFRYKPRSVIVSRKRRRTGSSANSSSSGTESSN

A further assay addresses T5, GST-Aq-NF-kB (UniProt A9Y5G7).
T5 sequence: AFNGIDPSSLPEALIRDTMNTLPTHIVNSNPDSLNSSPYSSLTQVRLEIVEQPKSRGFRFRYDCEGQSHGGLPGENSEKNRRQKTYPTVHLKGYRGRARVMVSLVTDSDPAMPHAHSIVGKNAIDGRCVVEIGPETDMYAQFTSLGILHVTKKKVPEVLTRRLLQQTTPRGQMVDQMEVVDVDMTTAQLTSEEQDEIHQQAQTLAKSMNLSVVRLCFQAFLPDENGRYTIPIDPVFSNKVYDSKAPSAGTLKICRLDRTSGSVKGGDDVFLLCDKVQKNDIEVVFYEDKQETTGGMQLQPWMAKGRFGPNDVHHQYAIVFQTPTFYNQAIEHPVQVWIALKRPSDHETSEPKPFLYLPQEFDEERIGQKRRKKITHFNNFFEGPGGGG

This is a selection; strong and weak results do not stand in their true shares. The list includes weakly bound sequences.

On to “CCGATTAACATCACGTGCCTCGATGATGTTAATCGGGTCTTGATTCGCTTGACGCTGCTG”, for which the binding signal is -0.285 z-score with GST-Ap-NF-kB RHD; -0.231 z-score in assay [1]; -0.592 z-score with GST-Co-NF-kB; -0.235 z-score in the assay with GST-Dm-Relish; -0.227 z-score with GST-Aq-NF-kB.

“CCGATTAACATCAAGGGTGTAAGTGATGTTAATCGGGTCTTGATTCGCTTGACGCTGCTG”: the binding signal in the assay with GST-Ap-NF-kB RHD turned out to be 0.62 z-score; in assay [1], 0.478 z-score; in the assay with GST-Co-NF-kB it was 0.742 z-score; in the assay with GST-Dm-Relish, 0.336 z-score; in the assay with GST-Aq-NF-kB it was 0.333 z-score.

“CCGATTAACATCAGAGAGGTATTTGATGTTAATCGGGTCTTGATTCGCTTGACGCTGCTG”: the binding signal with GST-Ap-NF-kB RHD is 0.0479 z-score; in assay [1], -0.655 z-score; in the assay with GST-Co-NF-kB, 0.349 z-score; with GST-Dm-Relish it was -0.143 z-score; in the assay with GST-Aq-NF-kB, -0.0797 z-score.

“CCGATTAACATCAACTCACCGTCTGATGTTAATCGGGTCTTGATTCGCTTGACGCTGCTG”: the binding signal was 0.23 z-score in the assay with GST-Ap-NF-kB RHD; 0.118 z-score in assay [1]; -0.319 z-score with GST-Co-NF-kB; 0.0223 z-score in the assay with GST-Dm-Relish; -0.381 z-score in the assay with GST-Aq-NF-kB.

As to “CCGATTAACATCAAAGAGATACGTGATGTTAATCGGGTCTTGATTCGCTTGACGCTGCTG”, the binding signal in the assay with GST-Ap-NF-kB RHD was -0.742 z-score; in assay [1], -0.0785 z-score; in the assay with GST-Co-NF-kB, 0.341 z-score; with GST-Dm-Relish it was -0.342 z-score; with GST-Aq-NF-kB it was -0.529 z-score.

For the sequence “CCGATTAACATCAGAAAATCCCCTGATGTTAATCGGGTCTTGATTCGCTTGACGCTGCTG”, the binding signal was found to be 10.4 z-score in the assay with GST-Ap-NF-kB RHD; 12 z-score in assay [1]; 4.89 z-score in the assay with GST-Co-NF-kB; 9.8 z-score with GST-Dm-Relish; 8.95 z-score with GST-Aq-NF-kB.

With “CCGATTAACATCATAAACAGCCATGATGTTAATCGGGTCTTGATTCGCTTGACGCTGCTG”, the binding signal with GST-Ap-NF-kB RHD is -0.742 z-score; in assay [1], 0.0173 z-score; with GST-Co-NF-kB, 0.0124 z-score; with GST-Dm-Relish, -0.072 z-score; with GST-Aq-NF-kB, -0.343 z-score.

For “CCGATTAACATCATGAAAGAGGCTGATGTTAATCGGGTCTTGATTCGCTTGACGCTGCTG”, the binding signal is -0.324 z-score with GST-Ap-NF-kB RHD; -0.198 z-score in assay [1]; 0.0279 z-score with GST-Co-NF-kB; -0.589 z-score in the assay with GST-Dm-Relish; -0.324 z-score with GST-Aq-NF-kB.

On to “CCGATTAACATCAATGTCCGGTGTGATGTTAATCGGGTCTTGATTCGCTTGACGCTGCTG”, for which the binding signal in the assay with GST-Ap-NF-kB RHD is 0.0496 z-score; in assay [1] it was -0.599 z-score; with GST-Co-NF-kB, 0.278 z-score; with GST-Dm-Relish, 0.221 z-score; with GST-Aq-NF-kB, -0.0512 z-score.

“CCGATTAACATCATTTTCCAAAATGATGTTAATCGGGTCTTGATTCGCTTGACGCTGCTG”: the binding signal with GST-Ap-NF-kB RHD is -0.979 z-score; in assay [1], 0.0318 z-score; in the assay with GST-Co-NF-kB, -1.3 z-score; in the assay with GST-Dm-Relish, 0.433 z-score; in the assay with GST-Aq-NF-kB, -0.116 z-score.

In the case of “CCGATTAACATCAGGAATTCCCCTGATGTTAATCGGGTCTTGATTCGCTTGACGCTGCTG”, the binding signal is 11.7 z-score in the assay with GST-Ap-NF-kB RHD; 12.5 z-score in assay [1]; 7.64 z-score with GST-Co-NF-kB; 9.99 z-score in the assay with GST-Dm-Relish; 11.5 z-score in the assay with GST-Aq-NF-kB.

Regarding “CCGATTAACATCAGGTCCAAGGTTGATGTTAATCGGGTCTTGATTCGCTTGACGCTGCTG”, the binding signal with GST-Ap-NF-kB RHD was -0.214 z-score; in assay [1], -0.535 z-score; with GST-Co-NF-kB, -0.446 z-score; with GST-Dm-Relish, -0.499 z-score; with GST-Aq-NF-kB, -0.389 z-score.

For “CCGATTAACATCACGTTGACTCGTGATGTTAATCGGGTCTTGATTCGCTTGACGCTGCTG”, the binding signal was -0.731 z-score with GST-Ap-NF-kB RHD; -0.981 z-score in assay [1]; -1.55 z-score with GST-Co-NF-kB; -0.305 z-score in the assay with GST-Dm-Relish; -0.548 z-score with GST-Aq-NF-kB.

Consider “CCGATTAACATCAGCAGTCTCCGTGATGTTAATCGGGTCTTGATTCGCTTGACGCTGCTG”, for which the binding signal with GST-Ap-NF-kB RHD is -0.137 z-score; in assay [1], -0.137 z-score; with GST-Co-NF-kB, -0.28 z-score; in the assay with GST-Dm-Relish, -0.308 z-score; with GST-Aq-NF-kB, -0.529 z-score.

For the origin of these results see paper PMC5700166.
